Results on six compounds are retold here after article PMC5404542, “In Vitro and In Vivo Antifungal Profile of a Novel and Long-Acting Inhaled Azole, PC945, on Aspergillus fumigatus Infection” (Antimicrobial Agents and Chemotherapy, 2017).

≈ marks a conversion by molar mass, not a printed value. Entries after “also recorded” stand apart in the source; their conditions may differ. Where two headings read alike, the source gives them in different places. Marks after values point to notes of the source that are not given here.

The subject of test [1] is A. fumigatus strains (NCPF2010, AF294, AF293, AF72, AF91, TR34/L98H). Particulars: for IC50 / IC90: Aspergillus fumigatus; for IC90 (OD): TR34/L98H mutation.
In test [2] the test system is four itraconazole-susceptible A. fumigatus strains (ATCC 1028, ATCC 10894, ATCC 13073, ATCC 16424). Put plainly: Antifungal activity by CLSI methodology. Particulars: for MIC50 / MIC: Aspergillus fumigatus; for MIC50: ATCC1028|ATCC10894|ATCC13073|ATCC16424, read-out: MIC50, Median; for MIC: ATCC1028|ATCC10894|ATCC13073|ATCC16424, read-out: MIC, Median.
Where [3] appears, read: NCPF2010, 48 h, read-out: IC50 (OD), strain AF72, G54E mutation, 48 h, 0.5% BSA.
The mark [4] stands for this setting: NCPF2010, 48 h, read-out: IC50 (OD), strain AF91, M220V mutation, 48 h, 0.5% BSA.
The mark [5] stands for this setting: NCPF2010, 48 h, read-out: IC50 (OD), strain AF293, no resistance mechanism, 48 h, 0.5% BSA.
Setting [6] is: NCPF2010, 48 h, read-out: IC50 (OD), strain AF294, no resistance mechanism, 48 h, 0.5% BSA.
Setting [7] is: NCPF2010, 48 h, read-out: IC50 (OD), strain NCPF2010, no resistance mechanism, 48 h, 0.5% BSA.
Setting [8] is: NCPF2010, 48 h, read-out: IC50 (OD), strain TR34/L98H, TR34/L98H mutation, 48 h, 0.5% BSA.
The mark [9] stands for this setting: NCPF2010, 48 h, read-out: IC90 (OD), strain AF72, G54E mutation, 48 h, 0.5% BSA.
[10] abbreviates: NCPF2010, 48 h, read-out: IC90 (OD), strain AF91, M220V mutation, 48 h, 0.5% BSA.
[11] abbreviates: NCPF2010, 48 h, read-out: IC90 (OD), strain AF293, no resistance mechanism, 48 h, 0.5% BSA.
The mark [12] stands for this setting: NCPF2010, 48 h, read-out: IC90 (OD), strain AF294, no resistance mechanism, 48 h, 0.5% BSA.
[13] abbreviates: NCPF2010, 48 h, read-out: IC90 (OD), strain NCPF2010, no resistance mechanism, 48 h, 0.5% BSA.
Setting [14] is: NCPF2010, 48 h, read-out: IC90 (OD), strain TR34/L98H, TR34/L98H mutation, 48 h, 0.5% BSA.
Where [15] appears, read: strain TR34/L98H, 48 h, 0.5% BSA.
Setting [16] is: itraconazole-resistant strains with M220V and G54E mutations.

Take `C[C@@H]1[C@H](O)[C@@H](C)/C=C/C=C/C=C/C=C/C=C/C=C/C=C/[C@H](O[C@@H]2O[C@H](C)[C@@H](O)[C@H](N)[C@@H]2O)C[C@@H]2O[C@](O)(C[C@@H](O)C[C@@H](O)[C@H](O)CC[C@@H](O)C[C@@H](O)CC(=O)O[C@H]1C)C[C@H](O)[C@H]2C(=O)O` [Amphotericin B, amphotericin B]: the IC50 was determined as 0.18 µg/mL (≈ 0.195 µM) in test [1] (setting [3]); 0.42 µg/mL (≈ 0.455 µM) in test [1] (setting [4]); 0.24 µg/mL (≈ 0.26 µM) in test [1] (setting [5]); 0.21 µg/mL (≈ 0.227 µM) in test [1] (setting [6]); 0.23 µg/mL (≈ 0.249 µM) in test [1] (setting [7]); 0.14 µg/mL (≈ 0.152 µM) in test [1] (setting [8]). Further, the IC90 in test [1] (setting [9]) was 0.64 µg/mL (≈ 0.693 µM); in test [1] (setting [10]) it was above 1 µg/mL; in test [1] (setting [11]) it was 0.85 µg/mL (≈ 0.92 µM); in test [1] (setting [12]), 0.79 µg/mL (≈ 0.855 µM); in test [1] (setting [13]), 0.48 µg/mL (≈ 0.519 µM); in test [1] (setting [14]) it was 0.29 µg/mL (≈ 0.314 µM).
Consider `CC[C@H](C)C[C@H](C)CCCCCCCCC(=O)N[C@H]1C[C@@H](O)[C@@H](NCCN)NC(=O)[C@@H]2[C@@H](O)CCN2C(=O)[C@H]([C@H](O)CCN)NC(=O)[C@H]([C@H](O)[C@@H](O)c2ccc(O)cc2)NC(=O)[C@@H]2C[C@@H](O)CN2C(=O)[C@H]([C@@H](C)O)NC1=O` [Caspofungin, caspofungin], for which the IC50 in test [1] (setting [3]) was 0.1 µg/mL (≈ 0.0915 µM); in test [1] (setting [4]) it was 0.072 µg/mL (≈ 0.0659 µM); in test [1] (setting [5]) it was above 1 µg/mL; in test [1] (setting [6]) it was above 1 µg/mL; in test [1] (setting [7]), 0.11 µg/mL (≈ 0.101 µM); in test [1] (setting [8]) it was 0.082 µg/mL (≈ 0.075 µM). Moreover, the IC90 in test [1] (setting [9]), in test [1] (setting [10]), in test [1] (setting [11]), in test [1] (setting [12]), in test [1] (setting [13]) and in test [1] (setting [14]) was above 1 µg/mL each time. In addition, the “IC90 (OD)” value in test [1] (setting [15]) is on record as “failed to achieve 90% inhibition”.
`CCC(C)n1ncn(-c2ccc(N3CCN(c4ccc(OCC5COC(Cn6cncn6)(c6ccc(Cl)cc6Cl)O5)cc4)CC3)cc2)c1=O` (stereo not drawn) [Itraconazole, itraconazole]: the IC50 in test [1] (setting [3]) is 0.43 µg/mL (≈ 0.609 µM); in test [1] (setting [4]) it was 0.26 µg/mL (≈ 0.368 µM); in test [1] (setting [5]) it was 0.032 µg/mL (≈ 0.0453 µM); in test [1] (setting [6]) it was 0.041 µg/mL (≈ 0.0581 µM); in test [1] (setting [7]), 0.057 µg/mL (≈ 0.0808 µM); in test [1] (setting [8]), 0.22 µg/mL (≈ 0.312 µM). The IC90 is above 1 µg/mL in test [1] (setting [9]); above 1 µg/mL in test [1] (setting [10]); 0.23 µg/mL (≈ 0.326 µM) in test [1] (setting [11]); 0.052 µg/mL (≈ 0.0737 µM) in test [1] (setting [12]); 0.085 µg/mL (≈ 0.12 µM) in test [1] (setting [13]); above 1 µg/mL in test [1] (setting [14]). Also, in test [1] (setting [15]), the “IC90 (OD)” value is “failed to achieve 90% inhibition”.
A word on the MIC50: it is an inhibitory concentration at the 50% level, which refers to growth in some studies and to a panel of isolates in others. By MIC is commonly meant the lowest concentration found to suppress growth. For the compound `Cc1cc(N2CCN(c3ccc(C(=O)Nc4ccc(F)cc4)cc3)CC2)ccc1OC[C@@H]1CO[C@@](Cn2cncn2)(c2ccc(F)cc2F)C1` [PC945, 4-[4-(4-{[(3R,5R)-5-(2,4-difluorophenyl)-5-(1H-1,2,4-triazol-1-ylmethyl)oxolan-3-yl]methoxy}-3-methylphenyl)piperazin-1-yl]-N-(4-fluorophenyl)benzamide], the MIC50 in test [2] was determined as 0.011 µg/mL (≈ 0.0161 µM). Besides, in test [2], the MIC was determined as 0.031 µg/mL (≈ 0.0454 µM). The “MIC, Median” value in test [2] (CLSI, determined visually, four strains) is listed as 0.031* μg/ml. The IC50 in test [1] (setting [3]) stood at 0.0061 µg/mL (≈ 0.00893 µM); in test [1] (setting [4]) it was 0.0081 µg/mL (≈ 0.0119 µM); in test [1] (setting [5]) it was 0.0012 µg/mL (≈ 0.00176 µM); in test [1] (setting [6]), 0.002 µg/mL (≈ 0.00293 µM); in test [1] (setting [7]), 0.0084 µg/mL (≈ 0.0123 µM); in test [1] (setting [8]) it was 0.034 µg/mL (≈ 0.0498 µM). The IC50 in test [1] (NCPF2010, read-out: IC50 (OD) values, range over strains, itraconazole-susceptible and -resistant A. fumigatus) is 0.0012 to 0.034 µg/mL (≈ 0.00176 to 0.0498 µM). Also, the IC90 in test [1] (setting [9]) is 0.029 µg/mL (≈ 0.0425 µM); in test [1] (setting [10]), 0.059 µg/mL (≈ 0.0864 µM); in test [1] (setting [11]), 0.0041 µg/mL (≈ 0.00601 µM); in test [1] (setting [12]) it was 0.0043 µg/mL (≈ 0.0063 µM); in test [1] (setting [13]), 0.01 µg/mL (≈ 0.0146 µM); in test [1] (setting [14]), above 1 µg/mL. In test [1] (setting [16]), the “fold more potent than posaconazole” value is 2 fold. The “fold more potent than voriconazole” value in test [1] (setting [16]) is 6 fold. Also, the “fold more potent than posaconazole (IC50)” value in test [1] (strain TR34/L98H) turned out to be 2.5 fold. Further, the “IC90 (OD)” value in test [1] (setting [15]) is listed as “failed to achieve 90% inhibition; also recorded: did not achieve 90% inhibition of growth”.
With `CC[C@@H]([C@H](C)O)n1ncn(-c2ccc(N3CCN(c4ccc(OC[C@@H]5CO[C@@](Cn6cncn6)(c6ccc(F)cc6F)C5)cc4)CC3)cc2)c1=O` [Posaconazole, posaconazole], the MIC50 in test [2] is 0.015 µg/mL (≈ 0.0214 µM). The MIC in test [2] came to 0.047 µg/mL (≈ 0.0671 µM). Also, the IC50 in test [1] (setting [3]) was found to be 0.032 µg/mL (≈ 0.0457 µM); in test [1] (setting [4]), 0.024 µg/mL (≈ 0.0342 µM); in test [1] (setting [5]), 0.01 µg/mL (≈ 0.0143 µM); in test [1] (setting [6]), 0.0056 µg/mL (≈ 0.00799 µM); in test [1] (setting [7]), 0.0086 µg/mL (≈ 0.0123 µM); in test [1] (setting [8]), 0.086 µg/mL (≈ 0.123 µM). The IC90 worked out at 0.19 µg/mL (≈ 0.271 µM) in test [1] (setting [9]); 0.12 µg/mL (≈ 0.171 µM) in test [1] (setting [10]); 0.028 µg/mL (≈ 0.04 µM) in test [1] (setting [11]); 0.011 µg/mL (≈ 0.0157 µM) in test [1] (setting [12]); 0.014 µg/mL (≈ 0.02 µM) in test [1] (setting [13]); 0.13 µg/mL (≈ 0.186 µM) in test [1] (setting [14]).
In the case of `C[C@@H](c1ncncc1F)[C@](O)(Cn1cncn1)c1ccc(F)cc1F` [Voriconazole, voriconazole], the MIC50 in test [2] came out at 0.14 µg/mL (≈ 0.401 µM). In test [2], the MIC is 0.5 µg/mL (≈ 1.43 µM). Besides, the IC50 is 0.019 µg/mL (≈ 0.0544 µM) in test [1] (setting [3]); 0.12 µg/mL (≈ 0.344 µM) in test [1] (setting [4]); 0.25 µg/mL (≈ 0.716 µM) in test [1] (setting [5]); 0.082 µg/mL (≈ 0.235 µM) in test [1] (setting [6]); 0.16 µg/mL (≈ 0.458 µM) in test [1] (setting [7]); above 1 µg/mL in test [1] (setting [8]). Moreover, the IC90 in test [1] (setting [9]) was 0.062 µg/mL (≈ 0.177 µM); in test [1] (setting [10]), 0.38 µg/mL (≈ 1.09 µM); in test [1] (setting [11]), 0.74 µg/mL (≈ 2.12 µM); in test [1] (setting [12]) it was 0.27 µg/mL (≈ 0.773 µM); in test [1] (setting [13]), 0.2 µg/mL (≈ 0.573 µM); in test [1] (setting [14]), above 1 µg/mL. Besides, in test [1] (setting [15]), the “IC90 (OD)” value is “failed to achieve 90% inhibition”.
